Laboratory results from PMC11558143.
Residue numbers refer to the chain shown, from its start. Names may count otherwise. No constants are given. Whether binding was seen depends on the method and setting. Binding seen in cells or lysates may run through a third protein. Some entries that bind do so weakly or less than the wild type. For part of these data: Where a sequence is shown, tags or fusion partners need not be part of it.

The chains behind the UniProt entries cited, without tags or fusion partners. Residues count along the entry.
UniProt Q00560, residues 23-917: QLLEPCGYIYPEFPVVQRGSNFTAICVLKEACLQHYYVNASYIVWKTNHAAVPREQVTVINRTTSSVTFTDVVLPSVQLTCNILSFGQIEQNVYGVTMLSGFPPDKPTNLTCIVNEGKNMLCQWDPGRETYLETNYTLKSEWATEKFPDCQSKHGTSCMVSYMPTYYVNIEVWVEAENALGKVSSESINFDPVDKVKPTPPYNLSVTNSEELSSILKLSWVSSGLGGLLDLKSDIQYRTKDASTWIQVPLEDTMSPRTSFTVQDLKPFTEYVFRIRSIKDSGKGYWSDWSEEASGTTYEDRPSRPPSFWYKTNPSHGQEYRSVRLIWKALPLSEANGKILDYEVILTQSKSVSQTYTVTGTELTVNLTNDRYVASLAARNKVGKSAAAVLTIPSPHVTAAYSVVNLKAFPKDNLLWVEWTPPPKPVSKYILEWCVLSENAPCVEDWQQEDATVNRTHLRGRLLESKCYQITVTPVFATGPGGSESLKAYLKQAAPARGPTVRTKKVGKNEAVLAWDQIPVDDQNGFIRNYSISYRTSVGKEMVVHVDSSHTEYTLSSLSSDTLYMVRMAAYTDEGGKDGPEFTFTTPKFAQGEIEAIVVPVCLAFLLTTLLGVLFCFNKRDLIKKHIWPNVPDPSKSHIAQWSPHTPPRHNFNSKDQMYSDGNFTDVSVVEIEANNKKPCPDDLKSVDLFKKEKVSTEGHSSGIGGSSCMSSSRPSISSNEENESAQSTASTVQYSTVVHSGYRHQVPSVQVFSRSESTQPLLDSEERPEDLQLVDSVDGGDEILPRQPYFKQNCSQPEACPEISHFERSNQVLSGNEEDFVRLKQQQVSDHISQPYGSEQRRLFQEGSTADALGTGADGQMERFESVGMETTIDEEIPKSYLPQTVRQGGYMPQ

B1: Orosomucoid 2 (Orm2), recombinant HA-tagged protein (ligand, UniProt P07361 19-207)
chain: QNPEHVNITIGDPITNETLSWLSDKWFFIGAAVLNPDYRQEIQKTQMVFFNLTPNLINDTMELREYHTIDDHCVYNSTHLGIQRENGTLSKYVGGVKIFADLIVLKMHGAFMLAFDLKDEKKRGLSLNAKRPDITPELREVFQKAVTHVGMDESEIIFVDWKKDRCSQQEKQQLELEKETKKDPEEGQA
B2: Orm2-D178E, with HA and 6xHis tag (ligand, UniProt P07361 19-207)
chain: B1 chain with D160E
B3: HA-IL23R (interleukin 23 receptor) (receptor, UniProt Q8K4B4 24-644)
chain: GITSINCSGDMWVEPGEIFQMGMNVSIYCQEALKHCRPRNLYFYKNGFKEEFDITRINRTTARIWYKGFSEPHAYMHCTAECPGHFQETLICGKDISSGHPPDAPSNLTCVIYEYSGNMTCTWNTGKPTYIDTKYIVHVKSLETEEEQQYLASSYVKISTDSLQGSRKYLVWVQAVNSLGMENSQQLHVHLDDIVIPSASIISRAETTNDTVPKTIVYWKSKTMIEKVFCEMRYKTTTNQTWSVKEFDANFTYVQQSEFYLEPDSKYVFQVRCQETGKRNWQPWSSPFVHQTSQETGKRNWQPWSSPFVHQTSQTVSQVTAKSSHEPQKMEMLSATIFRGHPASGNHQDIGLLSGMVFLAIMLPIFSLIGIFNRSLRIGIKRKVLLMIPKWLYEDIPNMENSNVAKLLQEKSVFENDNASEQALYVDPVLTEISEISPLEHKPTDYKEERLTGLLETRDCPLGMLSTSSSVVYIPDLNTGYKPQVSNVPPGGNLFINRDERDPTSLETTDDHFARLKTYPNFQFSASSMALLNKTLILDELCLVLNQGEFNSLDIKNSRQEETSIVLQSDSPSETIPAQTLLSDEFVSCLAIGNEDLPSINSYFPQNVLESHFSRISLFQK
B4: IL23R (interleukin 23 receptor), endogenous in BAC cells (receptor, UniProt Q8K4B4 24-644)
chain: B3 chain
B5: Orm2-6mut (T71A, H166A, D170A, K136A, G113A and E138A), HA-tagged (ligand, UniProt P07361 19-207)
chain: B1 chain with T53A, G95A, K118A, E120A, H148A, D152A

Key:
[1] = molecular target: T1, HA-IL23R (interleukin 23 receptor) (UniProt Q8K4B4); assay: co-IP; HEK293T transfected with Flag-GP130 or IL23R, lysed in RIPA buffer; receptor captured on anti-Flag or anti-HA agarose beads at 4 °C overnight, washed; Orm2 added to the beads at 0.1 µg/mL for 2 h, washed with RIPA, Western blot; only the binder purified
T1 sequence: B3 chain

[2] = molecular target: Flag-GP130 (glycoprotein 130) (UniProt Q00560); assay: as above
[3] = molecular target: GP130 (glycoprotein 130), endogenous in BAC cells (mouse (endogenous in BAC)) (UniProt Q00560); assay: co-IP; BAC cells with endogenous GP130 and IL23R; how Orm2 was supplied is not told
[4] = molecular target: T2, IL23R (interleukin 23 receptor), endogenous in BAC cells (mouse (endogenous in BAC)) (UniProt Q8K4B4); assay: as above
T2 sequence: B3 chain

[5] = molecular target: T1, HA-IL23R (interleukin 23 receptor); assay: co-IP; HEK293T co-transfected with HA-IL23R and Flag-GP130; receptors captured on anti-Flag and anti-HA agarose beads, washed; Orm2, Orm2-6mut or Orm2-D178E protein added to the beads (0.1 µg/mL, 2 h), washed with RIPA, Western blot; only the binder purified
[6] = molecular target: Flag-GP130 (glycoprotein 130) (UniProt Q00560); assay: as above
[7] = molecular target: Flag-GP130 (glycoprotein 130) (UniProt Q00560); assay: co-IP; HEK293T transfected with IL23R and GP130, with or without Orm2 (100 ng/mL) treatment
[8] = molecular target: GP130 (glycoprotein 130), endogenous in BAC cells (mouse (endogenous in BAC)) (UniProt Q00560); assay: co-IP; BAC cells, endogenous IL23R and GP130, with or without Orm2 (100 ng/mL) treatment

Binder | binding [5] | binding [6] | further results
B1 | binds | binds | binding [1]: binds; binding [2]: binds; binding [3]: binds; binding [4]: binds
B2 | binds | binds | –
B3 | – | – | binding [7]: binds
B4 | – | – | binding [8]: binds
B5 | no binding (tested: 0.1 µg mL^-1) | no binding (tested: 0.1 µg mL^-1) | –
